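Protocol summary: plate cells (96-well), add compound at 5 concentrations, incubate 48 h, interpolate endpoints linearly. GI50 is the concentration that inhibits growth by half.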 A number of entries come with more than one value. They are shown here; other results are not. The source may hold further records. The tests behind the records often covered other concentration ranges, not given here; a value can be the end of its range.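 TGI: concentration producing complete growth inhibition.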
Tests used:
Experiment in all cases: inhibition of tumour cell growth, NCI panel, 48 h
A498 renal = tested on: A498 renal
SNB-19 CNS = tested on: SNB-19 CNS
CAKI-1 renal = tested on: CAKI-1 renal
NCI-H226 lung = tested on: NCI-H226 lung
MDA-MB-231 breast = tested on: MDA-MB-231 breast
HT29 colon = tested on: HT29 colon
HCT-116 colon = tested on: HCT-116 colon
RPMI-8226 leukemia = tested on: RPMI-8226 leukemia
UACC-62 melanoma = tested on: UACC-62 melanoma
SW-620 colon = tested on: SW-620 colon
NCI-H460 lung = tested on: NCI-H460 lung
ACHN renal = tested on: ACHN renal
HL-60(TB) leukemia = tested on: HL-60(TB) leukemia
SR leukemia = tested on: SR leukemia
K-562 leukemia = tested on: K-562 leukemia
MOLT-4 leukemia = tested on: MOLT-4 leukemia

In the case of C[C@@H]1Nc2cc(NC(=O)OCCF)nc(N)c2N=C1c1ccccc1, the TGI (A498 renal) was < 0.1 nM and > 100 µM, the TGI (SNB-19 CNS) was 335 nM and > 100 µM and the TGI (CAKI-1 renal) was < 0.1 nM and > 100 µM. The TGI (NCI-H226 lung) was < 0.1 nM and > 100 µM, the TGI (MDA-MB-231 breast) was < 0.1 nM and > 100 µM and the TGI (HT29 colon) was < 0.1 nM and 3.23 µM.
In the case of COc1cc(Cc2nccc3cc(OC)c(OC)cc23)c(C(C)=O)cc1OC, the TGI (HCT-116 colon) was > 750 µM [1 test] and 65.3 µM [mean of 3 tests], the GI50 (RPMI-8226 leukemia) was 38.8 µM, > 750 µM [1 test] and 118 µM [mean of 3 tests] and the GI50 (UACC-62 melanoma) was 68.6 µM and > 750 µM. The GI50 (SW-620 colon) was 71.9 µM, > 750 µM [1 test] and 148 µM [mean of 4 tests].
COc1cccc2c1C(=O)c1c(O)c3c(c(O)c1C2=O)CC(O)(C(=O)CO)CC3OC1CC(N2CCOCC2C#N)C(O)C(C)O1 (stereo unspecified) was tested, and the TGI (NCI-H460 lung) was < 0.1 nM and 15 µM and the TGI (ACHN renal) was < 0.1 nM and > 100 µM.
With CC1=CC(=O)C=CC1=O the TGI (HL-60(TB) leukemia) was 5.16 µM [1 test] and 80.4 µM [mean of 2 tests], the TGI (SR leukemia) was 6.39 µM [1 test] and 263 µM [mean of 2 tests] and the TGI (K-562 leukemia) was 7.59 µM [1 test] and 175 µM [mean of 2 tests]. For the same compound, the TGI (MOLT-4 leukemia) was 7.73 µM [1 test] and 80.3 µM [mean of 2 tests].

Reference: PubChem BioAssay (NCI)
